The values below come from the supplement of paper PMC11417369.

Some of the results follow.

This assay concerns PfSIP2 AP2 domain 1 (GST-tagged). Kind of assay: gcPBM binding intensity (ln(normalized median fluorescence intensity)); higher = stronger DNA binding. In outline: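 Binding of GST-tagged P. falciparum DNA-binding domains, expressed in E. coli and used at about 25 μg on average, was carried out for 1 h in 1× PBS containing 1% milk, 0.2 mg/ml BSA, 0.5% salmon testes DNA and 0.03% Triton X-100. The target was an Agilent 4 × 180k array of primer-extended double-stranded 36-bp intergenic genomic probes plus negative controls, read with Alexa488 anti-GST antibody at 488 nm. Binding intensity is the highest Masliner-normalised natural-log median intensity across replicate spots of either probe orientation.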
Take “TTTTATAAAGGAAAAGCATGCAGACTAAAAGATCAT [TGCATGCA_site150]”: the “gcPBM binding intensity (ln)” value was determined as 7.1.
In the case of “GAGAGGAACATTATATGTACATATTAATTCTAAAAT [XGTACX_site5433]”, the “gcPBM binding intensity (ln)” value was 6.88.
Then “ACAAATAAGTTTTATACACACATATAAGTAAATACA [CACACA_site4157]”, with 7.05; and “TATAGTGATATATACACACACTTGTCTTGTAAAAAT [CACACA_site6594]”, with 6.93.
With “ACAATATTTTTTTATAAACACACATATATATAAATA [CACACA_site9175]” the figure was 7.18; with “TGTATAAAAATTTATACACACATTTTATATATTTCA [CACACA_site1015]”, 6.86; with “TATTAATTATTATGACATACATATCAGTTATTAAAA [CACACA_negctrl_site600]”, 6.83.
Then “TAATCCATAAGAAGCACACACATATATATATATTTT [CACACA_site1399]”, with 7.02; and “AAATTTATAAAGAACACACACATATATATATATATA [CACACA_site48]”, with 9.31; and “TTTCTTTCGAATGCTTCACACATTACTCTTAAATAG [CACACA_site5265]”, with 7.01.
Regarding “CAAAACCTAATATGTACACACATATACATCACACTT [CACACA_site7480]”, the “gcPBM binding intensity (ln)” value is 7.24.
For the sequence “AAATGTGAACTATAATAATTTCAACGTCTGATATAA [TGCATGCA_negctrl_site440]”, the “gcPBM binding intensity (ln)” value was determined as 6.76.
Then ATATATATATATATAGTGCACATTTATATAATTATT, with 10.6; and “ATTTTGTTATTATATATATATATATATATATATATA [XGTACX_negctrl_site590]”, with 9.26.
With “ATTTTAAATTAAATTACACACTACGAATAATATATT [CACACA_site4016]” the figure was 6.89; with “ATATTTCTGTCAAGCACACATAATATTAATATATGT [CACACA_site318]”, 7.02.
With “ACATATAAAATATTCACACACAAGTTATAGTTCTCG [CACACA_site3626]”, the “gcPBM binding intensity (ln)” value came to 6.91.
For “AATAAATTATATATCACACATATATATTTATATTTA [CACACA_site5964]”, the “gcPBM binding intensity (ln)” value turned out to be 6.79.
Then “AATATAAGAAAAATAACACACACATAAACATATATA [CACACA_site8899]”, with 7.05.
“ACATTAAAAAATTGTTTGCACTATATAAAATATTAA [GTGCAC_site9728]”: the “gcPBM binding intensity (ln)” value was 8.2.
Take “TTTCTTTTCTTCTCTATTTTTTTTTCACGGCATTAT [TGCATGCA_negctrl_site484]”: the “gcPBM binding intensity (ln)” value worked out at 6.76.
As for “ATTCATATGAAACACACACACACACCCATAAAAAAA [CACACA_site3246]”, the “gcPBM binding intensity (ln)” value amounted to 7.13.
Then “TCTTTTCAATTTTATATGATCTTAATATTTTATGAA [GTGCAC_negctrl_site294]”, with 6.76; and “TTTTTTTTTTTTTACACACACAAAATATTATAGGTA [CACACA_site7209]”, with 7.04; and “ATTTTTTACATACTCAAATGTTTTAATTTTTTATAT [CACACA_negctrl_site1213]”, with 6.99.
Then “ATATATATATATTATACACACGCCGAAAAAATAAAA [CACACA_site1551]”, with 8.28; and “TTTATTTTATCTAAAAGTACTTAAATTAGTGTATTT [XGTACX_site5696]”, with 6.93.
With “TTACGAAAAAACAAGAGTACATGATGTTATAAAATA [XGTACX_site1412]” the figure was 6.93; with “CGTTGTAGGGAATGTAGTACAGTTATTATTTTATTA [XGTACX_site2429]”, 7.14; with “TCATACATTTTCAGCCTGCACTTATATTTAATAATA [GTGCAC_site9863]”, 7.6.
With “TATATATATAAATACACACACACACCGATATATATA [CACACA_site5408]”, the “gcPBM binding intensity (ln)” value is 7.96.
With “ATTTCCCCAACGTGGGTGCATATATTTATGTGTGAA [GTGCAC_site9439]”, the “gcPBM binding intensity (ln)” value worked out at 11.1.
Take “TATTAATTATTTTACTGTACTAATAATACTTTTATT [XGTACX_site2179]”: the “gcPBM binding intensity (ln)” value is 6.92.
Regarding “ATTATATTTTTAAGTACACACATATAAATAAATATA [CACACA_site7682]”, the “gcPBM binding intensity (ln)” value was determined as 7.43.
Take “ATTATGTGAGGTAACTAAATATGTACGTAACGAAGA [CACACA_negctrl_site1400]”: the “gcPBM binding intensity (ln)” value was determined as 7.39.
As to “TAATGTATAATTAATCGTACATTAGATTGTTGTGTT [XGTACX_site52]”, the “gcPBM binding intensity (ln)” value is 7.04.
With “ATATATATATATGTGTGTACTTAAAAATATAATGCA [XGTACX_site7753]” the figure was 9.44.
As to “AATTTTTTTTTTTTTTTTTCTTTTGTAATAAACCAT [XGTACX_negctrl_site334]”, the “gcPBM binding intensity (ln)” value is 6.92.
Regarding “AAAAAAAAAAAACACACACACACACCGAAATATATA [CACACA_site4261]”, the “gcPBM binding intensity (ln)” value amounted to 7.12.
Then “TTCAGCATAAACACTTGTACATATATACTAAAAATT [XGTACX_site7272]”, with 7.13; and “TATTAACAAAATTTTTAACACACAAAAAAAAAAAAA [CACACA_site8542]”, with 6.94; and “CATAATATATTTTATGCATGCAAAGCAACCTTTTGA [TGCATGCA_site715]”, with 6.76.
On to TTTTTTGTTATATTTGTGCGCAAAAATTGCTGCTTG, for which the “gcPBM binding intensity (ln)” value was determined as 7.25.
Then “TTTGTAAAATAATATCTTTCATGTCCTTACTAATTA [GTGCAC_negctrl_site145]”, with 6.87.
On to “AAAATTTATGTAAAATGTACATACATAAATAAAGAT [XGTACX_site4339]”, for which the “gcPBM binding intensity (ln)” value was determined as 7.37.
With “TATTTATTTAAAGGCACACATATTTTTATACTTTCT [CACACA_site3163]” the figure was 6.86; with “ATTATATATATATATAAACACACATAAATATAAATA [CACACA_site8291]”, 7.22; with “TAAGGAAAAAATTATAGTACATAATAAATGTATATA [XGTACX_site8328]”, 7.
On to “ATAAATATATTTCACGCACACACACCCCAAATAAAT [CACACA_site9272]”, for which the “gcPBM binding intensity (ln)” value worked out at 7.45.
With “AAAAAAGAAAAGAAATCATGAAAGAATCAAATAAAG [CACACA_negctrl_site1771]” the figure was 6.88; with “CAAATTTTTTATTAAACACACAAACATATATTTATA [CACACA_site6992]”, 6.77; with “TTTTTATATATATTCTCACACACTTTTTATTTTAAC [CACACA_site657]”, 6.97.
Then “TGTTTTTTATTTAATTGTACGAATTAAAAAAAATAA [XGTACX_site3009]”, with 7.23; and AATATTCATATGCAGGTGCATTAATTTTTATTAATT, with 10.4; and “TTCCAACCATAGTATTCACACATTGTTTTATTCCAT [CACACA_site4927]”, with 7.12.
With “TTTCGTAAACAAATTTGTACGTACAAATTTATAAAT [XGTACX_site8175]” the figure was 7.43.
In the case of “TTTTTACTAATAAGATGTACATATATCCTAAGCATA [XGTACX_site251]”, the “gcPBM binding intensity (ln)” value came to 7.23.
